Test results reported in publication PMC8211829 (Biochimica et biophysica acta. Biomembranes, 2021).

Target: the molecule itself
Experiment: pyrene excimer fluorescence

Row | Protein | e/m ratio (fluorescence intensity at 460 nm / 375 nm)
1 | pyrene-labeled apoE3([…]) single Cys variant at A102 (endogenous Cys112 replaced by Ser) (natural protein, N-(1-pyrene)maleimide on Cys102) not shown | 0.29
2 | pyrene-labeled apoE3([…]) single Cys variant A29C (endogenous Cys112 replaced by Ser) (natural protein, N-(1-pyrene)maleimide on Cys29) not shown | 0.46
3 | pyrene-labeled apoE4([…]) single Cys variant at A102 (natural protein, N-(1-pyrene)maleimide on Cys102) not shown | 1.96
4 | pyrene-labeled apoE4([…]) single Cys variant A62C (natural protein, N-(1-pyrene)maleimide on Cys62) not shown | 0.67
5 | pyrene-labeled apoE3([…]) single Cys variant A256C (endogenous Cys112 replaced by Ser) (natural protein, N-(1-pyrene)maleimide on Cys256) not shown | 1.45
6 | pyrene-labeled apoE4([…]) single Cys variant A216C (natural protein, N-(1-pyrene)maleimide on Cys216) not shown | 1.56
7 | pyrene-labeled apoE3([…]) single Cys variant A62C (endogenous Cys112 replaced by Ser) (natural protein, N-(1-pyrene)maleimide on Cys62) not shown | 0.32
8 | pyrene-labeled apoE4([…]) single Cys variant A29C (natural protein, N-(1-pyrene)maleimide on Cys29) not shown | 1.33
9 | pyrene-labeled apoE3([…]) single Cys variant A216C (endogenous Cys112 replaced by Ser) (natural protein, N-(1-pyrene)maleimide on Cys216) not shown | 0.91
10 | pyrene-labeled apoE4([…]) single Cys variant A256C (natural protein, N-(1-pyrene)maleimide on Cys256) not shown | 2.22
